Reference: PubChem BioAssay AID686979 (National Center for Advancing Translational Sciences (NCATS), 2013)
Out of some 420,000 compounds screened, about 50,000 (12%) were called active. Inconclusive means that the source gave no clear call. Such entries were picked first, then a sample of the others. Calls follow the shape of the dose curve; as a rule, active = well fitted inhibition curve with a large enough effect; inconclusive = small, poorly fitted or top-dose-only effect; inactive = flat fitted curve, though single readings scatter. Potencies of inconclusive entries are left out as doubtful fits.

Assay: qHTS for Inhibitors of human tyrosyl-DNA phosphodiesterase 1 (TDP1): qHTS in cells in presence of CPT; also: nearly all actives have a fitted effect of over 55% in size
Details: chicken DT40 Tdp1-/-;hTDP1 cells + 20 nM CPT, ATP luminescence, 48 h; activity change, negative = growth inhibition: at 46.2 µM (top of the series) unless noted
Method in brief: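 Chicken DT40 Tdp1-/- cells stably complemented with human TDP1 were seeded at 400 cells/well in medium containing 20 nM camptothecin, exposed to pin-transferred compounds, and grown at 37 °C for at least 48 hr. Viability was read as ATP luminescence.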
% is scaled to controls: 0 for no effect and ±100 for the full control effect; potency is read from the fitted curve at half-maximal effect; tags tell the direction and shape of the fitted curve.

**Q.** With `Cn1c(=O)n(CCOc2ccc(Cl)cc2Cl)c2ccccc21` as the compound, how does the “activity change, negative = growth inhibition” value read?
**A.** inactive: -17.8%

**Q.** Which Potency does the source give for `COc1ccc(-c2nn(-c3ccccc3)cc2C(=O)N(C)CC(=O)Nc2cccc(F)c2)cc1` here?
**A.** inconclusive [inhibitor, single point]

**Q.** For `CCN(CC)S(=O)(=O)c1cccc(C(=O)N/N=C/c2ccc(N3CCOCC3)cc2)c1`, which “activity change, negative = growth inhibition” value is on record?
**A.** inactive: -18.7%

**Q.** Which Potency does the source give for `COc1cccc(NC(=O)Cn2nc(N3CCN(c4ccccc4)CC3)ccc2=O)c1` here?
**A.** inconclusive [inhibitor, single point]

**Q.** With `CCC(C)[C@H](NC(=O)NCCC1=CCCCC1)C(=O)O` (stereo not given in full) as the compound, how does the Potency read?
**A.** inconclusive [inhibitor, single point]

**Q.** For `CCCNC(=O)c1ccc2c(c1)N=C(CCC)c1ccccc1S2`, which Potency is on record?
**A.** active: 1.16 µM

**Q.** Which Potency does the source give for `CCCCC[C@H](O)C=C[C@H]1[C@H](O)CC(=O)[C@H]1CCCCCCC(=O)O` here?
**A.** inconclusive [inhibitor, single point]

**Q.** For `CC(=O)NC(Cc1cnc[nH]1)C(=O)O` (stereo not given), which Potency is on record?
**A.** inconclusive [inhibitor, single point]

**Q.** Which Potency does the source give for `C/C(=N\NC(=O)c1c(Br)cnn1C)c1ccc(NC(=O)c2ccc(F)cc2)cc1` here?
**A.** inconclusive [inhibitor, single point]

**Q.** For `COC(=O)c1ccccc1CSc1nsc(C)c1C#N`, which “activity change, negative = growth inhibition” value is on record?
**A.** inactive: -4.89%

**Q.** With `CN1CCN(c2ccc(NC(=O)c3ccc(-c4ccccc4F)o3)cc2)CC1` as the compound, how does the Potency read?
**A.** inconclusive [inhibitor, single point]

**Q.** Which Potency does the source give for `Cc1nccc2[nH]c(=O)c(C(=O)NC3CCCCC3C)cc12` (stereo not given) here?
**A.** inconclusive [inhibitor, single point]

**Q.** Which Potency does the source give for `CCCn1nnc(NC(=S)NC(=O)c2cccs2)n1` here?
**A.** active: 20.6 µM

**Q.** Which “activity change, negative = growth inhibition” value does the source give for `CC1=C(C(=O)NCc2ccccn2)C2(CCC(C)CC2)OC1=O` (stereo not given) here?
**A.** inactive: 8.44%

**Q.** For `CCOC(=O)c1sc(=S)n(-c2ccccc2OC)c1N`, which Potency is on record?
**A.** inconclusive [inhibitor, single point]

**Q.** Which Potency does the source give for `CCN(C(=O)CN1C(=O)c2ccccc2Sc2ccc(C(=O)OC)cc21)c1cccc(C)c1` here?
**A.** inconclusive [inhibitor, partial curve, poor fit]

**Q.** Which Potency does the source give for `CCC(=O)N1CCc2cc(S(=O)(=O)NC(Cc3ccccc3)C(=O)NCc3ccccc3)ccc21` (stereo not given) here?
**A.** inconclusive [inhibitor, single point]

**Q.** For `Cc1cccc(CCNC(=O)C2CCCN(c3cnccn3)C2)c1` (stereo not given), which “activity change, negative = growth inhibition” value is on record?
**A.** inactive: -3.92%

**Q.** For `C[C@H](NC(=O)N1CCn2c1nc1ccccc12)C(=O)N1CCCCC1`, which Potency is on record?
**A.** active: 16.4 µM

**Q.** With `COc1ccc(C(=O)c2ccccc2O)c(O)c1` as the compound, how does the Potency read?
**A.** inconclusive [inhibitor, single point]
